“And” between values parts separate entries of the source, which are not always exact repeats. Equal values may be shown once. The inconclusive results got no clear call from the source; some entries with a clear call stand among them for comparison. For some assays here: Where the call is inconclusive, the potency comes from a doubtful curve fit. The source made the active and inactive calls. Unless noted, the call rests on the fitted dose curve; in most records, active means well fitted curve in the direction sought with a large enough effect in the repeat runs; inconclusive means weak or mixed curves; inactive means no such curve, though single readings can be large; an effect the other way counts as inactive or inconclusive.
Experiments:
[1] = qHTS assay for identifying genotoxic compounds that show differential cytotoxicity against isogenic chicken DT40 cell lines with known DNA damage response pathways - wild type cell line (AID 743012); conditions: DT40 wild type chicken cells viability, CellTiter-Glo, 40 h; activity change, negative = cytotoxicity: at 68.4 µM (top of the series) unless noted; further: nearly all actives have a fitted effect of over 60% in size
Method in brief: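 Quantitative HTS on parental DT40 cells: 40 h compound treatment at 37 C/5% CO2, with viability then determined by CellTiter-Glo luminescence. Values serve as the DNA repair-proficient reference for differential cytotoxicity.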

[2] = qHTS assay for identifying genotoxic compounds that show differential cytotoxicity against isogenic chicken DT40 cell lines with known DNA damage response pathways - Rev3 mutant cell line (AID 743014); conditions: chicken DT40 Rev3-/- viability, CellTiter-Glo, 40 h; series mostly up to 68.4 µM; further: nearly all actives have a fitted effect of over 55% in size
[3] = qHTS assay to identify small molecule antagonists of the thyroid receptor (TR) signaling pathway - cell viability counter screen (AID 743064); conditions: GH3.TRE-Luc viability, CellTiter-Fluor, 24 h; activity change, negative = cytotoxic: at 70.3 µM (top of the series) unless noted; further: nearly all actives have a fitted effect of over 50% in size
Method in brief: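 GH3.TRE-Luc rat pituitary cells carrying a TRE-luciferase reporter were treated with compound plus 1 nM T3 (final) for 23.5 h at 37 °C. Viability was then read in the same wells by CellTiter-Fluor fluorescence after a further 30 min.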

[4] = qHTS assay to identify small molecule antagonists of the androgen receptor (AR) signaling pathway - cell viability counter screen (AID 743033; further: nearly all actives have a fitted effect of over 45% in size); conditions: AR-bla HEK293 viability, CellTiter-Glo luminescence, 16 h; activity change, negative = cytotoxicity: at 58.5 µM (top of the series)
[5] = biological target: Androgen receptor (Homo sapiens) (UniProt P10275); assay: qHTS assay to identify small molecule antagonists of the androgen receptor (AR) signaling pathway (AID 743035; active means well fitted inhibition curve with a large enough effect in the signal ratio in the repeat runs, not every such curve was filed as active; inconclusive means weak or mixed curves, or effect the other way; inactive means no such curve, though single readings can be large or run the other way; the % refers to the signal ratio); conditions: HEK293 AR-UAS-bla, R1881-stimulated, beta-lactamase FRET, 16 h; series mostly up to 58.5 µM
Chain of UniProt P10275 (P10275 whole entry, looked up): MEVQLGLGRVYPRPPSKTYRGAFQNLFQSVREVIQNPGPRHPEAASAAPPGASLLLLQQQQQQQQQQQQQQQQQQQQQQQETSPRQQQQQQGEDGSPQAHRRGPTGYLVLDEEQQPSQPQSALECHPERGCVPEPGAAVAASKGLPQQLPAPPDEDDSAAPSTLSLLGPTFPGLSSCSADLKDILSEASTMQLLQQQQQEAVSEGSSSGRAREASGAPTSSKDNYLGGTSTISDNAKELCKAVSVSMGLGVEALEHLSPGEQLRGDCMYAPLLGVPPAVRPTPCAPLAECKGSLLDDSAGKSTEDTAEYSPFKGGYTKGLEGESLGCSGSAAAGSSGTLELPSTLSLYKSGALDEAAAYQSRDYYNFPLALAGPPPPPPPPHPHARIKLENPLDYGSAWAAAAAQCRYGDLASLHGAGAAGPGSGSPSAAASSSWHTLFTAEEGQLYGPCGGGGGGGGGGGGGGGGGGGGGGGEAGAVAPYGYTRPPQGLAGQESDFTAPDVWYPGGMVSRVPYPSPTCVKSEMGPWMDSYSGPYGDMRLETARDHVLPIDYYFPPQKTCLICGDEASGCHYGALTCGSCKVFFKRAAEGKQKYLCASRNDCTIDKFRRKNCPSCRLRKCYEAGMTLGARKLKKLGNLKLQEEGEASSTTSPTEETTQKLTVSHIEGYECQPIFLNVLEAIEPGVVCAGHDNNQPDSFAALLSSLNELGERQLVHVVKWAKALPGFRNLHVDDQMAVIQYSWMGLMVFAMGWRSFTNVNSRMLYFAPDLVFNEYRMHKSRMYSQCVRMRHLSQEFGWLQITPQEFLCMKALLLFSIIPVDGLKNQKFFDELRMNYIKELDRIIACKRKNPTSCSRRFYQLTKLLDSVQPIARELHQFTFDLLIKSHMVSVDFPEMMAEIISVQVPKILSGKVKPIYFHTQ
Method in brief: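 Cell line: GeneBLAzer AR-UAS-bla GripTite (HEK293). Stimulus: R1881 added after compound. Exposure: 16 h, 37C, 5% CO2. Readout: LiveBLAzer B/G FRET fluorescence after 2 h at room temperature.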
Potency means the concentration at half of the fitted maximal effect; tags describe the fitted curve by direction and shape.

SMILES | Potency [1] | Potency [2] | Potency [3] | Potency [4] | Potency [5]
O=Cc1ccccc1O | inactive | inconclusive: 61.1 µM [rising, partial curve, poor fit] | inconclusive: 27.3 µM [rising, single point] | – | –
C=CC(=O)OCC1CC2CC1C1CCC(COC(=O)C=C)C21 (stereo not given) | inconclusive: 21.7 µM [cytotoxic] | active: 24.3 µM | inconclusive: 68.6 µM [cytotoxic, single point] | inconclusive: 61.6 µM [cytotoxic, partial curve, poor fit] | –
CN1CC(=O)N2[C@H](c3ccc4c(c3)OCO4)c3[nH]c4ccccc4c3C[C@@H]2C1=O | inactive | inactive | inconclusive: 3.35 µM [cytotoxic, full curve, poor fit] | – | –
O=C1c2ccccc2C(=O)C1(O)O | inconclusive: 68.9 µM [cytotoxic, single point] | active: 24.5 µM | inconclusive: 54.8 µM [cytotoxic, single point] | inconclusive: 24.7 µM [cytotoxic, partial curve] | –
C[C@@H]1C[C@H]2[C@@H]3C[C@H](F)C4=CC(=O)C(Cl)=C[C@]4(C)[C@@]3(F)[C@@H](O)C[C@]2(C)[C@@]1(O)C(=O)CO | inconclusive: 13.3 µM [cytotoxic, partial curve] | inconclusive: 2.37 µM [cytotoxic, full curve] | – | – | active: 3.38 µM
CC1=C(/C=C/C(C)=C/C=C/C(C)=C/C(=O)O)C(C)(C)CCC1 | inconclusive: 77 µM [cytotoxic, single point] | inconclusive: 0.0106 µM [cytotoxic, full curve, poor fit] | inconclusive: 68.7 µM [cytotoxic, single point] and inconclusive: 68.5 µM [cytotoxic, single point] | – | –

From PubChem BioAssay (Tox21)
